Results taken from PMC6919601, “Identification of Plasmodium dipeptidyl aminopeptidase allosteric inhibitors by high throughput screening” (PLoS ONE, 2019).
Where “and” joins values, the source holds several entries; their conditions need not be identical. Equal entries are not always repeated. Out of some 110,000 compounds screened, about 230 (0.21%) showed an effect of 50% or more. Some of the results follow.

Each molecule was assayed against DPAP1 (Plasmodium falciparum, UniProt Q8IIJ9) (assay: primary screen, percent inhibition; read by cleavage of a fluorogenic dipeptide substrate; higher = more effect of the substance).
Sequence of DPAP1 (Q8IIJ9 whole entry, looked up): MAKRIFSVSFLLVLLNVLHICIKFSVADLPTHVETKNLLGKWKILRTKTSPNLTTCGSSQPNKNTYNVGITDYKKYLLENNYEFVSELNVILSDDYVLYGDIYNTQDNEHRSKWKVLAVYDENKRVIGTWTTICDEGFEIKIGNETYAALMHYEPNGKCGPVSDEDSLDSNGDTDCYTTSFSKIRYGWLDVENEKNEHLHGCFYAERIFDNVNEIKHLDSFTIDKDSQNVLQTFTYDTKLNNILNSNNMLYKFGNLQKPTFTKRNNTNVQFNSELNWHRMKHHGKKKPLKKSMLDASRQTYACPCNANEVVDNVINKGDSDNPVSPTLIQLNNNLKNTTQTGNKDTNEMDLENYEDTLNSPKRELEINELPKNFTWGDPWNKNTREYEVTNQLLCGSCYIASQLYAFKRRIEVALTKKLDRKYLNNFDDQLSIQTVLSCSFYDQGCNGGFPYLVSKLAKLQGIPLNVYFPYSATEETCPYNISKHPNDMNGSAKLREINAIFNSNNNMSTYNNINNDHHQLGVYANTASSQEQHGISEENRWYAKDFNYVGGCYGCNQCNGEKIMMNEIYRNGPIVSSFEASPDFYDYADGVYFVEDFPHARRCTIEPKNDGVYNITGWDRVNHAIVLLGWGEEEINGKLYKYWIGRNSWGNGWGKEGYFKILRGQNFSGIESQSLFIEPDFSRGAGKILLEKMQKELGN
Set-up: species or system P. falciparum D10 trophozoite lysates; single well
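Also: 30 min substrate incubation versus DMSO and 10 µM JCP410 controls.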

| SMILES | % Inhibition @ 10 uM |
| --- | --- |
| CCOC(=O)C1=C(C)NC(=O)NC1c1ccc(-c2ccccc2)cc1 (stereo not shown) | -0.582% |
| O=C1CC(c2ccccc2C(F)(F)F)C2=C(CC(c3ccc(F)cc3)CC2=O)N1 (stereo not shown) | 3.67% |
| Cc1cc(NC(=O)CSc2nc3ccccc3c3nc(CCc4c(C)n[nH]c4C)nn23)[nH]n1 | 4.33% |
| CCCCSCCCNC(=O)c1ccc(CNS(=O)(=O)c2ccc(F)cc2)cc1 | 6.95% |
| C1CN(C2C3CC4CC(C3)CC2C4)CCO1 (stereo not shown) | -4.94% |
| COc1cccc(C2C(C#N)=C(N)Oc3[nH]c(-c4ccccc4)nc32)c1 (stereo not shown) | -1.44% |
| CN(C)CC(=O)Nc1cc(N(C)C)nc2ccccc12 | 2.6% |
| CCCCN(C)CCNC(=O)c1cnn2c(O)c(Cc3ccccc3F)c(C)nc12 | -5.52% |
| Cc1ccc(-c2nc(NCCCN(C)C)c3ccccc3n2)cc1 | -1.33% |
| O=C(NCc1ccc2c(c1)OCO2)c1ccc(C(=O)NCc2ccc3c(c2)OCO3)cc1 | -10.1% |
| COc1ccc(C(=O)Nc2ccc(Br)cc2C)c(OC)c1 | -6.44% |
| COc1ccc(-c2noc(CNC(=O)C34CC5CC(CC(C5)C3)C4)n2)cc1 | -1.22% |
| O=C(CCC1CCCC1)Nc1ccc(C(=O)O)cc1 | 1.19% |
| Cc1ccc2c(c1)cc1c(=O)n(CC(=O)NCCCN3CCCC3=O)nc(C)n12 | 1.68% |
| Cc1ccc(NC(=O)c2cc3nc(C(F)F)cc(C(F)F)n3n2)cc1 | 2.4% |
| COc1cccc(NC(=O)C2C3C=CC(O3)C2C(=O)O)c1 (stereo not shown) | 3.69% |
| CN1CCN(S(=O)(=O)c2ccc(Sc3nc4ccccc4[nH]3)c3nsnc23)CC1 | -6.04% |
| COc1cc(OC)cc(C(=O)Nc2c(Cl)cccc2Cl)c1 | 1.64% |
| Oc1c(Br)cc(/C=N/n2c(S)nnc2-c2ccccc2)c(O)c1Br | -2.65% |
| O=C(NCCc1ccccc1)c1ccccc1NC(=O)C1CC=CCC1C(=O)O (stereo not shown) | -2.76% |
| COc1ccccc1NC(=O)c1c(N)sc2c1CCC(C)C2 (stereo not shown) | -4.89% |
| COc1cc(C2NC(=O)NC(C)=C2C(=O)OCC2CCCCC2)ccc1O (stereo not shown) | 4.35% |
| CCN1CCN(C2CCC(C)CC2)CC1 (stereo not shown) | 0.162% |
| O=C(c1cc2c(s1)-c1ccc(Cl)cc1S(=O)(=O)C2)N1CCCCC1c1cccnc1 (stereo not shown) | -2.45% |
| O=C(/C=C/c1ccco1)c1ccc2c(c1)OCCO2 | 0.131% |

| SMILES | % Inhibition @ 10 uM |
| --- | --- |
| CCOc1ccccc1NC1=C(Cl)C(=O)N(c2cccc(C)c2)C1=O | 9.33% |
| Cc1ccc(C)c(CN2CCCCC2CO)c1 (stereo not shown) | 3.47% |
| O=C(NCC1CCCO1)c1ccc(COc2ccccc2Br)cc1 (stereo not shown) | 1.7% |
| CCc1ccc(C2C(C#N)=C(N)Oc3[nH]nc(-c4cccs4)c32)cc1 (stereo not shown) | -0.968% |
| CCOC(=O)N1CCN(C(=O)c2ccc(CS(=O)(=O)c3ccc(OC)cc3)o2)CC1 | 1.93% |
| CC(C)Cc1ccc(C(C)C(=O)Nc2ncccn2)cc1 (stereo not shown) | -1.5% |
| COC(=O)c1c(C)sc2c1OC(N)=C(C#N)C2c1cccc(OC)c1OC (stereo not shown) | 2.99% |
| O=C(C1CCCN(S(=O)(=O)c2ccc(Br)s2)C1)N1CCCCCC1 (stereo not shown) | 5.19% |
| CN(C)c1ccc(/C=C(\C#N)c2nc(-c3cc4ccccc4oc3=O)cs2)cc1 | 2.54% |
| O=C(Nc1ccccc1C(=O)O)c1cccc(C(=O)Nc2ccccc2C(=O)O)c1 | 21.7% |
| CCOc1ccc(-c2nnc3ccc(SCC(=O)Nc4nnc(C)s4)nn23)cc1 | 3.54% |
| Cc1[nH]nc(N)c1-c1ccc(Cl)cc1 | -3.35% |
| O=[N+]([O-])c1ccc(CNc2ccc(Cl)cc2)s1 | -3.35% |
| COc1ccc2cc3cc(C(=O)O)sc3nc2c1 | 5.12% |
| COc1ccc(Cn2c(CCC(=O)N3CCOCC3)nc3cccnc32)cc1 | 0.66% |
| CCCSc1nnc2n(CCC)c3c(c(=O)n12)C(C)(C)Cc1ccccc1-3 | -1.18% |
| COc1ccc2c(CNCc3ccc(C)o3)c(C(=O)O)n(Cc3ccc(C)cc3)c2c1 | -0.712% |
| O=C(Nc1cccc(O)c1)c1ccc2c(c1)C(=O)N(c1ccccn1)C2=O | -2.63% |
| CCc1c(C)sc(NC(=O)CCCOc2ccc(Cl)cc2Cl)c1C(N)=O | -9.33% |
| O=C1NC(=O)C2C1Sc1nc(O)sc1C2c1ccco1 (stereo not shown) | 3.73% |
| CC(C)CCNC(=O)c1cn(C2CCCC2)c(=O)c2c1c1ccccc1n2C | 1.85% |
| COc1ccc(C2c3c(oc4cc(C)c(C)cc4c3=O)C(=O)N2c2ccc(C)cn2)cc1OC (stereo not shown) | -6.94% |
| COC(=O)C1=C(C)N=c2s/c(=C/c3ccc4c(c3)OCO4)c(=O)n2C1/C=C/c1ccccc1 (stereo not shown) | 0.279% |
| CCOC(=O)c1oc2c(CN3CCN(C)CC3)c(O)ccc2c(=O)c1-c1ccccc1OC | -1.11% |
| O=C(NCCN1CCOCC1)c1nn2c(C(F)(F)F)cc(-c3ccccc3)nc2c1Cl | 8.74% |

| SMILES | % Inhibition @ 10 uM |
| --- | --- |
| CCSc1ncnc2sc3c(c12)CCC(C)C3 (stereo not shown) | -6.44% |
| Cc1cc(C)n(-c2nc3ccccc3nc2N2CCN(C(=O)c3ccc(Cl)cc3)CC2)n1 | 0.032% |
| COCCN1C(=O)c2[nH]nc(-c3c(C)cc(C)cc3O)c2C1c1cccc(OC)c1 (stereo not shown) | 9.21% |
| Cc1ccc(Cn2nnc3c(O)nc(C4CCN(C(=O)OC(C)(C)C)CC4)nc32)cc1 | 2.21% |
| COC(=O)Nc1c(C)nc2n(C)c3ccccc3n12 | 3.27% |
| Cc1occc1C(=O)O/N=C(\N)c1ccccn1 | 0.884% |
| CCCn1nc(NC(=O)c2cccc(Cl)c2)c2cc3ccccc3nc21 | -0.671% |
| Cc1nc2nc(C)c(CCC(=O)N3CCCC3)c(C)n2n1 | 4.54% |
| CC1CCC(N2CCCC2CO)CC1 (stereo not shown) | 2.99% |
| CCOC(=O)c1[nH]c(C(=O)O)c(CCN(CC)CC)c1C | 6.12% |
| Cc1cccc(NC(=O)C2C(=O)N(C)C3(C)CC2c2ccccc2O3)c1 (stereo not shown) | 5.07% |
| CCOP(=S)(OCC)C(Nc1ccccc1)c1ccccc1 (stereo not shown) | -2.12% |
| CCOCCCNC(=O)CCc1nnc2n(Cc3ccccc3)c(=O)c3ccccc3n12 | 0.981% |
| COc1ccc(NC(=O)c2sc3nc4c(cc3c2N)CC(C)CC4)cc1 (stereo not shown) | 2.82% |
| O=C(CCC(=O)N1CCSc2ncccc21)NCc1cccc(Cl)c1 | -1.6% |
| CCOC(=O)N1CCC(Nc2nc3ccccc3n3cnnc23)CC1 | -4.21% |
| CCOc1ccc(N2CC(C(=O)Nc3ccccn3)CC2=O)cc1 (stereo not shown) | 2.95% |
| CCOC(=O)c1sc(N2N=C(C)/C(=C\c3cc4c(cc3Br)OCO4)C2=O)nc1C | 0.884% |
| Cc1nc2c(C(=O)NC3CCCCC3)cnn2c(C)c1Cc1ccccc1 | -2.14% |
| COC(=O)c1ccc2[nH]c(SCc3cccc(C)c3)nc2c1 | 3.3% |
| COc1ccccc1/C=C/c1nn2c(C)nnc2s1 | 2.29% |
| Cc1sc2c(c1C)c(=O)n(CCc1ccccc1)c(=O)n2CC(=O)NCCC1=CCCCC1 | -5.88% |
| Cc1ccc(-n2nc(C)c3c(C(=O)Nc4nc(C)cs4)cc(C)nc32)cc1 | -3.13% |
| CCN1CCC(C#N)(NC(=O)[C@H](Cc2c(F)cccc2F)NC(=O)c2ccc(-c3ccccc3Cl)nc2)CC1 | 4.33% |
| CC(=O)Nc1cc2nn(-c3ccccc3)nc2cc1Cl | 2.44% |

| SMILES | % Inhibition @ 10 uM |
| --- | --- |
| CC1(C)CC2CC(C)(CN2C(=O)c2cnn3c2NC(c2cccs2)CC3C(F)(F)F)C1 (stereo not shown) | -7.02% |
| NS(=O)(=O)c1ccc(CCNC(=O)CCC(=O)N2Cc3ccccc3Oc3ncccc32)cc1 | -2.62% |
| CCOC(=O)N1CCC(NC(=O)Cn2cc3c(n2)CCC(C)C3)CC1 (stereo not shown) | -3.35% |
| CC1=C(C(=O)Nc2ccccc2)C(c2ccccc2Cl)n2ncnc2N1 (stereo not shown) | -16.5% |
| Cc1nn(CC(=O)NCCc2ccc(Cl)cc2)c(=O)c2nn(-c3ccccc3)c(C)c12 | 8.44% |
| CCCN1C(=O)c2[nH]nc(-c3ccccc3O)c2C1c1ccc(OC)c(OC)c1 (stereo not shown) | -1.35% |
| CCCCCc1ccc(-c2ccc(-c3ncc(N)cn3)cc2)cc1 | -5.62% |
| COc1ccc2nc(NC(=O)Cn3cnc4onc(-c5ccc(Cl)cc5)c4c3=O)sc2c1 | 7.39% |
| COc1cc(OC)cc(C(=O)Nc2nc(-c3nnn(-c4cc(C)ccc4C)c3C)ns2)c1 | -5.47% |
| c1cc2c(cc1-c1nnc(CN3CCN(C4CCCCC4)CC3)o1)OCO2 | 9.51% |
| CCOC(=O)C1=C(CC)OC(N)=C(C#N)C1c1cccs1 (stereo not shown) | -3.72% |
| COc1cccc(C2c3c(-c4c(C)cc(C)cc4O)n[nH]c3C(=O)N2CCCO)c1 (stereo not shown) | 0.00706% |
| N#CCNC(=O)[C@@H](NC(=O)OCc1ccccc1)C1CCCC1 | -4.72% |
| Cc1ccc2c(=O)c(C(=O)c3ccc(Cl)cc3)cn(CC(N)=O)c2n1 | -1.52% |
| O=S1(=O)CCC(N2CCOCC2)C1 (stereo not shown) | -0.152% |
| CC(C)NC(=O)CN(Cc1ccccc1Cl)S(=O)(=O)c1ccc(Br)cc1 | 3.21% |
| Cc1ccc2c(Sc3ccc(Cl)cc3)c(C(=O)NCCN3CCN(C)CC3)[nH]c2c1 | -4.45% |
| O=C(Cn1ncc2c1-c1ccccc1OC2)NCC1(c2ccccc2)CCCC1 | 2.6% |
| CCN1CCN(C(=O)C2CCN(c3ncnc4c3sc3cccc(F)c34)CC2)CC1 | 2.65% |
| CCOc1cccc(C(=O)Nc2ccc(NC(=O)c3cccs3)cc2)c1 | -11% |
| CC(C)Nc1nc(Oc2ccccc2)nc(Oc2ccccc2)n1 | 2.7% |
| O=[N+]([O-])c1ccc(SCCc2ccncc2)cc1 | 0.757% and 9.38% |
